Results published in the supplement of paper PMC9446081.
The campaign covered roughly 39,000 compounds. About 220 (0.56%) showed activity. This is one part of the list.

System: Escherichia coli K-12 BW25113
Assay: relative growth (OD600 normalised to plate interquartile mean) (fraction); higher = less growth inhibition, active = 0.2 or less
Settings: 50 µM; LB; incubation time: overnight (16-24 h)
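Also: static incubation at 37 °C against the wild-type strain, values averaged over two biological replicates.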

SMILES | relative growth
CC(C)(O)C#Cc1ccc([C@H]2[C@@H](CO)N3CCCCN(S(C)(=O)=O)C[C@H]23)cc1 | inactive: 0.98
CN1C(=O)c2cc(NC(=O)C3CCOCC3)ccc2OC[C@@H]2O[C@@H](CC(=O)NCc3ccccc3F)CC[C@H]21 | inactive: 1.02
O[C@H]1CCCSc2ccccc21 | inactive: 0.999
C[C@@H]1CN([C@H](C)CO)C(=O)Cc2cc(NC(=O)Cn3cnnn3)ccc2O[C@H]1CN(C)S(=O)(=O)c1cn(C)cn1 | inactive: 0.995
CC(C)Nc1ncnc(N)c1[N+](=O)[O-] | inactive: 0.972
C[C@H](CO)N1C[C@H](C)[C@H](CN(C)Cc2ccc(Oc3ccccc3)cc2)Oc2ccc(NC(=O)Nc3ccc(C(F)(F)F)cc3)cc2C1=O | inactive: 1.01
C[C@H]1CN([C@@H](C)CO)C(=O)c2cccc(NS(=O)(=O)c3cn(C)cn3)c2O[C@H]1CN(C)S(C)(=O)=O | inactive: 0.989
NNc1ccc2c(N)[nH]nc2c1 | inactive: 1.01
Cc1noc(C)c1S(=O)(=O)N(C)C[C@H]1OCCCC[C@@H](C)Oc2ccc(NS(=O)(=O)c3cn(C)cn3)cc2C(=O)N([C@H](C)CO)C[C@@H]1C | inactive: 0.968
CCCCCCCC(=O)OCC(COC(=O)CCCCCCC)OC(=O)CCCCCCC | inactive: 1.06
CCOC(=O)c1cc2c(c(-c3cccc(-c4cccc(OC)c4)c3)n1)[C@@H](CCO)N(S(=O)C(C)(C)C)C2 (stereo partly drawn) | inactive: 1
COc1ccc(S(=O)(=O)N(C)C[C@H]2Oc3ccc(NC(=O)Nc4c(C)noc4C)cc3C(=O)N([C@@H](C)CO)C[C@H]2C)cc1 | inactive: 1.01
C[C@H](CO)N1C[C@H](C)[C@H](CN(C)Cc2ccncc2)Oc2c(NS(=O)(=O)c3cn(C)cn3)cccc2C1=O | inactive: 1.01
CS(=O)(=O)Nc1ccc2c(c1)[C@H]1C[C@H](CC(=O)NCc3ccc(-c4ccccc4)cc3)O[C@@H](CO)[C@H]1O2 | inactive: 0.989
Cc1ccc(S(=O)(=O)N(C)C[C@@H]2OCCCC[C@@H](C)Oc3ccc(NC(=O)NC4CCCCC4)cc3C(=O)N([C@@H](C)CO)C[C@@H]2C)cc1 | inactive: 1
C[C@@H]1CN([C@H](C)CO)C(=O)c2cc(NC(=O)Nc3cccc4ccccc34)ccc2O[C@@H]1CN(C)Cc1ccc(Cl)c(Cl)c1 | inactive: 1.04
Cc1noc(C)c1S(=O)(=O)Nc1ccc2c(c1)CC(=O)N([C@@H](C)CO)C[C@H](C)[C@H](CN(C)Cc1ccncc1)O2 | inactive: 0.983
CN[C@@H]1[C@@H](C)O[C@@H](O[C@H]2[C@H](C)O[C@@H](O[C@@H]3/C(C)=C/C[C@@H]4C[C@@H](C[C@]5(C=C[C@H](C)[C@@H](C(C)C)O5)O4)OC(=O)[C@@H]4C=C(C)[C@@H](O)[C@H]5OC/C(=C\C=C\[C@@H]3C)[C@]54O)C[C@@H]2OC)C[C@H]1OC | inactive: 0.788
COc1ccc2c3c(n(c2c1)C)[C@@H](CO)N(C[C@]13CCN(CC1)C(=O)c1ccncc1)C(=O)C1CCOCC1 | inactive: 0.989
O=C(C[C@H]1C[C@@H]2c3cc(NC(=O)NC4CCCC4)ccc3O[C@@H]2[C@H](CO)O1)NCc1ccc2c(c1)OCO2 | inactive: 0.958

SMILES | relative growth
C[C@@H]1CCCCO[C@@H](CN(C)C(=O)c2ccccc2)[C@H](C)CN([C@H](C)CO)C(=O)c2cc(NC(=O)Cc3ccccc3)ccc2O1 | inactive: 0.991
C[C@@H]1CN([C@H](C)CO)C(=O)c2cccc(NC(=O)NC3CCCCC3)c2O[C@H]1CN(C)S(C)(=O)=O | inactive: 0.957
O=C(OCC1OC(OC(=O)c2cc(O)c(O)c(OC(=O)c3cc(O)c(O)c(O)c3)c2)C(OC(=O)c2cc(O)c(O)c(OC(=O)c3cc(O)c(O)c(O)c3)c2)C(OC(=O)c2cc(O)c(O)c(OC(=O)c3cc(O)c(O)c(O)c3)c2)C1OC(=O)c1cc(O)c(O)c(OC(=O)c2cc(O)c(O)c(O)c2)c1)c1cc(O)c(O)c(OC(=O)c2cc(O)c(O)c(O)c2)c1 (stereo not drawn) | inactive: 0.647
CN(C)CC(=O)N[C@@H]1CC[C@H](CCNS(=O)(=O)c2ccccc2)O[C@@H]1CO | inactive: 0.993
C[C@@H]1CCCCO[C@@H](CN(C)C(=O)Nc2ccc3c(c2)OCO3)[C@@H](C)CN([C@H](C)CO)C(=O)c2cc(NS(=O)(=O)c3ccc(F)cc3)ccc2O1 | inactive: 0.994
Cl.Cl.N=C(NCCCCCCNC(=N)NC(=N)Nc1ccc(Cl)cc1)NC(=N)Nc1ccc(Cl)cc1 | active: 0.0423
COCC#Cc1ccc2c(c1)O[C@@H](CN(C)Cc1ccc3c(c1)OCO3)[C@@H](C)CN([C@H](C)CO)S2(=O)=O | inactive: 1.04
CCCCCCCCCCCC=C=CCCCC(=O)O | inactive: 1.03
COc1ccc(C(=O)Nc2ccc3c(c2)C(=O)N(C)[C@H]2CC[C@H](CC(=O)NCC4CC4)O[C@@H]2CO3)cc1 | inactive: 0.993
Cc1ccc(S(=O)(=O)Nc2ccc3c(c2)C(=O)N([C@@H](C)CO)C[C@@H](C)[C@H](CN(C)Cc2ccc(Oc4ccccc4)cc2)O3)cc1 | inactive: 1.01
C[C@H]1CN([C@@H](C)CO)C(=O)CCCn2cc(nn2)CO[C@@H]1CN(C)C(=O)Nc1ccc2c(c1)OCCO2 | inactive: 0.986
CS(=O)(=O)c1ccc(C(O)C(CO)NC(=O)C(Cl)Cl)cc1 (stereo not drawn) | inactive: 0.375
CCc1nnc(N)[nH]1 | inactive: 0.947
NCCCCCCNC(=O)[C@H]1C[C@H]2C(=O)N[C@@H](Cc3ccccc3)C(=O)N2[C@H]1c1cccc(OCCO)c1 | inactive: 1
Cn1c(=O)c2c(ncn2CC2OCCO2)n(C)c1=O | inactive: 1.04
C[C@@H]1CCCCO[C@@H](CN(C)Cc2ccc(C(=O)Nc3ccccc3N)cc2)[C@@H](C)CN([C@H](C)CO)C(=O)c2cc(NC(=O)Nc3ccccc3)ccc2O1 | inactive: 1.05
Clc1ccc(COC(Cn2ccnc2)c2ccc(Cl)cc2Cl)cc1.O=[N+]([O-])O (stereo not drawn) | inactive: 0.949
C[C@@H]1CN([C@@H](C)CO)C(=O)c2cc(NS(=O)(=O)c3cn(C)cn3)ccc2O[C@@H](C)CCCCO[C@@H]1CN(C)S(=O)(=O)c1cn(C)cn1 | inactive: 1.01
C[C@H](CO)N1C[C@H](C)[C@H](CN(C)Cc2ccc3c(c2)OCO3)Oc2ccc(NC(=O)Nc3cccc4ccccc34)cc2CC1=O | inactive: 0.994
C[C@@H]1CN([C@H](C)CO)C(=O)c2cc(NC(=O)C3CCCCC3)ccc2O[C@@H]1CN(C)Cc1ccc(C(F)(F)F)cc1 | inactive: 1.01

SMILES | relative growth
C[C@@H]1CCCCO[C@H](CN(C)Cc2ccc(C(F)(F)F)cc2)[C@H](C)CN([C@@H](C)CO)C(=O)c2cc(NC(=O)Nc3ccccc3)ccc2O1 | inactive: 0.992
C[C@@H]1CN([C@@H](C)CO)C(=O)c2cc(NC(=O)Nc3cccc4ccccc34)ccc2O[C@@H]1CN(C)S(=O)(=O)c1cccs1 | inactive: 0.995
CC(=O)N(C)c1nc(N)n(-c2ccccc2)n1 | inactive: 1.01
Cc1noc(C)c1NC(=O)N[C@@H]1C=C[C@@H](CC(=O)N2CCN(C)CC2)O[C@@H]1CO | inactive: 1.02
CN1CCCN=C1COC(=O)C(O)(c1ccccc1)C1CCCCC1.Cl (stereo not drawn) | inactive: 1
Cc1noc(C)c1NC(=O)N(C)C[C@@H]1Oc2c(NC(=O)c3ccc(-c4nccs4)cc3)cccc2C(=O)N([C@H](C)CO)C[C@@H]1C | inactive: 1.06
CCS(=O)(=O)N1C[C@]2(CCN(CC2)C(=O)Cc2ccccc2)c2c(n(c3cc(ccc23)OC)C)[C@H]1CO | inactive: 1
CCCNC(=O)N(C)C[C@H]1Oc2cc(C#Cc3ccccn3)ccc2S(=O)(=O)N([C@H](C)CO)C[C@H]1C | inactive: 1.02
C[C@@H]1CCCCO[C@H](CN(C)C(=O)CCC(F)(F)F)[C@@H](C)CN([C@H](C)CO)C(=O)c2cc(NC(=O)Nc3ccccc3)ccc2O1 | inactive: 0.965
C[C@H](CO)N1C[C@H](C)[C@H](CN(C)C(=O)Nc2cccc3ccccc23)Oc2ccc(NC(=O)NC3CCCCC3)cc2C1=O | inactive: 1.04
COCC#Cc1cnc2c(c1)C(=O)N([C@@H](C)CO)C[C@H](C)[C@@H](CN(C)S(=O)(=O)c1cn(C)cn1)O2 | inactive: 1
C[C@H](CO)N1C[C@H](C)[C@H](CN(C)S(=O)(=O)c2ccc(F)cc2)OCCCC[C@H](C)Oc2ccc(NC(=O)Cc3ccccc3)cc2C1=O | inactive: 1.05
CN(C)CCCNC(=O)C[C@@H]1C=C[C@@H](NS(=O)(=O)c2ccccc2)[C@H](CO)O1 | inactive: 1
Cc1noc(C)c1S(=O)(=O)N(C)C[C@@H]1OCCCC[C@H](C)Oc2ccc(NC(=O)Nc3ccc(C(F)(F)F)cc3)cc2C(=O)N([C@H](C)CO)C[C@@H]1C | inactive: 0.968
C[C@@H]1CCCCO[C@@H](CN(C)C(=O)Nc2ccc3c(c2)OCO3)[C@H](C)CN([C@H](C)CO)C(=O)c2cc(NC(=O)Nc3ccc(F)cc3)ccc2O1 | inactive: 1.02
CCOC(=O)CCCCCC(=O)Nc1ccc2c(c1)C(=O)N([C@@H](C)CO)C[C@@H](C)[C@H](CN(C)C(=O)c1ccncc1)OCCCC[C@H](C)O2 | inactive: 0.992
C[C@@H]1CCCCO[C@@H](CN(C)S(=O)(=O)c2cn(C)cn2)[C@H](C)CN([C@@H](C)CO)C(=O)c2cc(NS(=O)(=O)c3cccs3)ccc2O1 | inactive: 0.992
C[C@@H]1CCCCO[C@H](CN(C)C(=O)Nc2ccc3c(c2)OCO3)[C@H](C)CN([C@H](C)CO)C(=O)c2cc(NS(=O)(=O)c3cccs3)ccc2O1 | inactive: 1.03
